About 2,200 (0.71%) of roughly 310,000 compounds showed an effect of 50% or more. Effects have a minus sign here. The list shows a part of the results.
Biological target: human ether-à-go-go-related gene (hERG) potassium channel (human, UniProt Q12809)
Assay: primary screen, population patch clamp on CHO cells stably expressing hERG

Chain of human ether-à-go-go-related gene (hERG) potassium channel (Q12809 whole entry, looked up): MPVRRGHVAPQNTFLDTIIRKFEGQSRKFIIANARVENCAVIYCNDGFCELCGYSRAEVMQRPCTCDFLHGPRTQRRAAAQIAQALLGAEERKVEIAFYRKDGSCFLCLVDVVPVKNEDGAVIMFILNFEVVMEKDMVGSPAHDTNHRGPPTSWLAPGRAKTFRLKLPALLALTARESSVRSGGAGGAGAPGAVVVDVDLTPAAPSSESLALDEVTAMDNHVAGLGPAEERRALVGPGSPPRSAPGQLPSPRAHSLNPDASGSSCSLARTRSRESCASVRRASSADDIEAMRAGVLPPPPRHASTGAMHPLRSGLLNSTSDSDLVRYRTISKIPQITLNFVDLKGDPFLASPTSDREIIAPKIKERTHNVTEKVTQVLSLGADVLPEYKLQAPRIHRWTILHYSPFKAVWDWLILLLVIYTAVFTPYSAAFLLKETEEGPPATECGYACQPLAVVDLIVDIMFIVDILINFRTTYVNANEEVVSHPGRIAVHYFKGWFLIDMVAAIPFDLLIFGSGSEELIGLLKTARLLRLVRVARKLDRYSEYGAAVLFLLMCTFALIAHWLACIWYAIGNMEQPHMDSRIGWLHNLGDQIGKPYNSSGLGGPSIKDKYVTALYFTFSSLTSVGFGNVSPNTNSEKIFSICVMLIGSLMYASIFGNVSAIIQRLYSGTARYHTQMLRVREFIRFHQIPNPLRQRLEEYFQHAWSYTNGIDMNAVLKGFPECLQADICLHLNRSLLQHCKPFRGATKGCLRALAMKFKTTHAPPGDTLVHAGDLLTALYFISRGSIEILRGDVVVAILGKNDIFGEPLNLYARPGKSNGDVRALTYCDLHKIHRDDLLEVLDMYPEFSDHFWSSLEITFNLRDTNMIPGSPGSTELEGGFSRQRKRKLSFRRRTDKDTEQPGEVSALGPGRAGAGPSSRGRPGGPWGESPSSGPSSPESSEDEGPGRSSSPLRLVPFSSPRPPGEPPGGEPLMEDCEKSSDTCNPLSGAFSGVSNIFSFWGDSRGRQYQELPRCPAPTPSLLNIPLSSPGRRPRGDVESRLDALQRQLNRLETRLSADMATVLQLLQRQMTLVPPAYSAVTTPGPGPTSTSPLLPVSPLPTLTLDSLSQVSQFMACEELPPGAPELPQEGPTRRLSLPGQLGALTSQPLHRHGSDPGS

SMILES	hERG current change (%, negative = inhibition) at 1uM [%]
CCN(CC)c1ccc(/C=N/N=C(c2ccccc2)c2ccccc2)c(O)c1	-0.682
Cc1ccc(-c2nc3ccc(NS(=O)(=O)c4ccccc4)cc3[nH]2)o1	12
Cc1ccc(N2CC(C(=O)NC3CCSC3=O)CC2=O)cc1 (centres unmarked)	13.7
Cc1nc2nc[nH]n2c(=O)c1CCOC(=O)c1c(F)cccc1F	14.9
Cc1cc(C)n(CC(=O)Nc2ccccc2)n1	9.86
S=c1nc(NCc2cccc(Cl)c2)c2ccccc2[nH]1	11.6
CC1CN(C(=O)CSc2nnc3c(Cl)cc(Cl)cn23)CC(C)O1 (centres unmarked)	6.25
CSCCC(NC(=O)c1cccc(S(=O)(=O)N2CCOCC2)c1)C(=O)Nc1cccc(C)c1 (centres unmarked)	15
CCCOc1ccc(-c2cc(C(F)(F)F)c(C#N)c(SCC(=O)O)n2)cc1	12.7
O=C(NCC1CCCO1)C1CCCN1C(=O)NC1CCCCC1 (centres unmarked)	12.8
c1ccc(CN(Cc2ccco2)C(c2ccncc2)c2nnnn2C2CCCC2)cc1 (centres unmarked)	1.34
COC(=O)NNS(=O)(=O)c1ccc(C)cc1	21.2
O=C(c1ccccc1)c1ccc2cc(O)ccc2c1	9.95
CCN1CCN(c2nn3c(=O)c4ccccc4nc3c3ccccc23)CC1	-71.5
CC1(c2nnc(-c3ccncc3)o2)CC(c2c(Cl)cccc2Cl)=NO1 (centres unmarked)	-42.9
CCOc1ccc(-n2c(C)cc(/C=N/Nc3nc(C)cc(=O)[nH]3)c2C)cc1	7.31
CCn1c(SCC(=O)N(C)C)nc2cc(S(=O)(=O)N3CCOCC3)ccc21	1.16
O=C1Nc2ccc(Br)cc2C(c2ccccc2)=NC1O (centres unmarked)	10.6
CCCc1nnc(SCC(=O)N2CCCC2)n1CC1CCCO1 (centres unmarked)	2.42
COC(=O)Cn1c(C)nc2c(sc3nc(C)cc(C)c32)c1=O	0.966
CCC/C(O)=C1\C(=O)CCCC1=NC(C)C(=O)O (centres unmarked)	6.45
COc1ccc(CC(=O)OC(C)C(=O)NCc2ccc3c(c2)OCO3)cc1OC (centres unmarked)	14.8

SMILES	hERG current change (%, negative = inhibition) at 1uM [%]
COC(=O)C1=C(C)N(C)C(C)=C(C(=O)OC)C1c1ccsc1	5.98
CN1CCc2[nH]c3ccc(C(=O)NN)cc3c2C1	3.5
Cc1cc(C)c(C)c(Cn2c(CO)nc3ccccc32)c1C	-5.02
CCC(c1nnnn1Cc1ccc(OC)cc1)N1CCN(C(=O)c2ccco2)CC1.Cl (centres unmarked)	-13.8
O=C(NCCNCc1ccc(F)cc1)c1ccco1.O=C(O)C(=O)O	18.4
O=C1CC(NS(=O)(=O)c2cc(F)ccc2F)CN1c1cccc(F)c1 (centres unmarked)	12.6
CC1CCN(S(=O)(=O)c2ccc(C(=O)N3CCCC3C(=O)O)cc2)CC1 (centres unmarked)	10.8
CC1Cc2ccccc2N1C(=O)Cn1c(=O)oc2cc(S(=O)(=O)N3CCCCC3)ccc21 (centres unmarked)	14.4
CN(C)c1ccc(/C=C2/SC(=O)N(CCN=C3NS(=O)(=O)c4ccccc43)C2=O)cc1	2.06
CN1CCN(S(=O)(=O)c2cccc(C(=O)Nc3cc(C(F)(F)F)ccc3N3CCCCC3)c2)CC1	10
Cc1cc(OC(=O)c2cccs2)ccc1C(C)C	15.8
O=C(NNS(=O)(=O)c1ccccc1[N+](=O)[O-])c1ccccc1[N+](=O)[O-]	24.6
COc1ccc(/C=C2\SC(=S)N(CCC(=O)N(CCO)Cc3ccccc3)C2=O)cc1OC	10.6
COc1ccc(CCC(=O)N2CCN(S(=O)(=O)c3ccc4ccccc4c3)CC2)cc1	5.35
CCOC(=O)C1(Cc2ccccc2C)CCCN(C(=O)c2ccccn2)C1 (centres unmarked)	9.05
CCOc1ccc(C(=O)Nc2ccccc2NC(C)=O)cc1OCC	15.4
C=CCNc1sc(C(=O)c2ccccc2)c(N)c1-c1nc2ccccc2s1	8.33
COc1ccc(C2C3=C(CC(C)(C)CC3=O)Nc3c2c(=O)[nH]c(=O)n3Cc2ccccc2)cc1 (centres unmarked)	10.5
CC(C)CCC(CC(C)O)c1n[nH]c(=S)n1-c1ccccc1 (centres unmarked)	11.9
O=c1cc(N2CCc3ccccc32)[nH]c(=O)n1-c1ccc(Cl)cc1	14
CC(C)NC(=O)c1ccc(-c2cccc(C(F)(F)F)c2)o1	5.29
Cc1cc(C)c(S(=O)(=O)N2CCN(c3ccc([N+](=O)[O-])c(NCc4ccco4)c3)CC2)c(C)c1	14.3
